# In PubChem BioAssay (Tox21):
# “And” between values parts separate entries of the source, which are not always exact repeats. Equal entries are not always repeated. This list was built around the results that the source calls inconclusive (neither active nor inactive); the mix of calls is not that of the screen. For part of these data: A potency beside an inconclusive call is a rough fit, not a confirmed value. The source made the active and inactive calls. Unless noted, calls follow the shape of the dose curve; as a rule, active = well fitted curve in the direction sought with a large enough effect in the repeat runs; inconclusive = weak or mixed curves; inactive = no such curve, though single readings can be large; an effect the other way counts as inactive or inconclusive.
# Key:
# [1] = qHTS assay for identifying genotoxic compounds that show differential cytotoxicity against isogenic chicken DT40 cell lines with known DNA damage response pathways - wild type cell line (AID 743012); settings: DT40 wild type chicken cells viability, CellTiter-Glo, 40 h; activity change, negative = cytotoxicity: at 68.4 µM (top of the series) unless noted; also: potency is read from the fitted curve at half-maximal effect; nearly all actives have a fitted effect of over 60% in size
# Method in brief: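 Parental DNA repair-proficient DT40 cells, 300 per well, were pre-incubated ~0.5 h at 37 C/5% CO2, pin-dosed with compounds in DMSO, then incubated 40 h. Viability was read as CellTiter-Glo luminescence after 30 min at room temperature.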
# [2] = qHTS assay to identify small molecule antagonists of the estrogen receptor alpha (ER-alpha) signaling pathway - cell viability counter screen (AID 743074; calls by dose curve;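 also: HEK293 cells carrying ER-alpha-UAS-bla reporter stimulated with 17beta-estradiol; nearly all actives have a fitted effect of over 45% in size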; also: potency is read from the fitted curve at half-maximal effect)
# [3] = qHTS assay for identifying genotoxic compounds that show differential cytotoxicity against isogenic chicken DT40 cell lines with known DNA damage response pathways - Rad54/Ku70 mutant cell line (AID 743015); settings: DT40 Rad54/Ku70 mutant viability, CellTiter-Glo, 40 h; activity change, negative = cytotoxicity: at 66.8 µM (top of the series); also: nearly all actives have a fitted effect of over 60% in size; also: potency is read from the fitted curve at half-maximal effect; as to activity change, negative = cytotoxicity: % is scaled to controls: 0 for no effect and ±100 for the full control effect
# [4] = qHTS assay to identify small molecule agonists of the estrogen receptor beta (ER-beta) signaling pathway - cell viability counter screen (AID 1259380); also: % is scaled to controls: 0 for no effect and ±100 for the full control effect; nearly all actives have a fitted effect of over 30% in size
# Method in brief: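 ER-beta-UAS-bla HEK293T cells in medium with 2% charcoal-stripped FBS were preincubated 6 hr at 37C, dosed with compound in DMSO for 16 hr, then after the bla read, CellTiter-Glo was added for 30 min at room temperature; luminescence recorded.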
# [5] = target: Progesterone receptor (Homo sapiens) (UniProt P06401); assay: qHTS assay to identify small molecule antagonists of the progesterone receptor (PR) signaling pathway (AID 1346795; active = well fitted inhibition curve with a large enough effect in the signal ratio in the repeat runs, not every such curve was filed as active; inconclusive = weak or mixed curves; the % refers to the signal ratio; also: % is scaled to controls: 0 for no effect and ±100 for the full control effect); settings: PR-UAS-bla HEK293T, beta-lactamase FRET ratio, 16 h; activity change, negative = inhibition: at 92.4 µM (top of the series) unless noted
# Method in brief: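 Antagonist mode with agonist R5020 at 1 nM final and 16 hr incubation at 37C. Reporter was beta-lactamase driven by UAS in HEK293T (PR-UAS-bla), 2% charcoal-stripped serum; signal from LiveBLAzer FRET substrate, 2 hr at room temperature.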
# [6] = qHTS assay to identify small molecule agonists of the progesterone receptor (PR) signaling pathway - cell viability counter screen (AID 1346799; calls by dose curve; also: nearly all actives have a fitted effect of over 45% in size; also: potency is read from the fitted curve at half-maximal effect)
# Method in brief: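 Cytotoxicity measured by CellTiter-Glo luminescence (30 min, RT) in the same wells as the PR beta-lactamase agonist read. Those HEK293T cells had 16 h compound treatment at 37 C in 2% charcoal-stripped FBS medium.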
# [7] = target: Cytochrome P450 2C19 (Homo sapiens) (UniProt P33261); assay: Cytochrome P450 Family 2 Subfamily C Member 19 (CYP2C19) small molecule antagonists: luciferase reporter qHTS assay (AID 1671197); also: potency is read from the fitted curve at half-maximal effect; nearly all actives have a fitted effect of over 65% in size
# Method in brief: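 Light output is proportional to CYP2C19 activity: proluciferin substrate is converted to luciferin, then detected by a luciferin detection reagent that also stops the 1 h, 37C NADPH-driven reaction. Ketoconazole serves as positive control.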
# [8] = qHTS assay for small molecule disruptors of the mitochondrial membrane potential (AID 720635); settings: HepG2 mitochondrial membrane potential, Mito-MPS dye ratio; ratio activity, negative = MMP loss: at 83.2 µM (top of the series) unless noted; also: potency is read from the fitted curve at half-maximal effect
# Method in brief: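 HepG2 cells exposed to compound 1 hr at 37C, then Mito-MPS dye 30 min. Ratio read of aggregate (540/590 nm) versus monomer (490/535 nm) fluorescence.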
# [9] = qHTS assay for identifying genotoxic compounds that show differential cytotoxicity against isogenic chicken DT40 cell lines with known DNA damage response pathways - Rev3 mutant cell line (AID 743014); settings: chicken DT40 Rev3-/- viability, CellTiter-Glo, 40 h; activity, negative = cytotoxicity: at 68.4 µM (top of the series); also: potency is read from the fitted curve at half-maximal effect; nearly all actives have a fitted effect of over 55% in size
# [10] = qHTS assay for small molecule agonists of the antioxidant response element (ARE) signaling pathway (AID 743202; active = well fitted activation curve with a large enough effect in the signal ratio in the repeat runs, not every such curve was filed as active; inconclusive = weak or mixed curves, or effect the other way; inactive = no such curve, though single readings can be large or run the other way; the % refers to the signal ratio; also: % is scaled to controls: 0 for no effect and ±100 for the full control effect); settings: HepG2 ARE-bla reporter, beta-lactamase FRET, 16 h; activation: at 73.3 µM (top of the series) unless noted
# Method in brief: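 Agonist mode reporter screen: HepG2 cells with ARE-controlled beta-lactamase are incubated with test compounds for 16 h at 37 C, and beta-lactamase activity is measured as fluorescence of cleaved B/G FRET substrate.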
# [11] = target: Vitamin D3 receptor (Homo sapiens) (UniProt P11473); assay: qHTS assay to identify small molecule antagonists of the vitamin D receptor (VDR) signaling pathway (AID 743223; active = well fitted inhibition curve with a large enough effect in the signal ratio in the repeat runs, not every such curve was filed as active; inconclusive = weak or mixed curves, or effect the other way; inactive = no such curve, though single readings can be large or run the other way; the % refers to the signal ratio; also: % is scaled to controls: 0 for no effect and ±100 for the full control effect); settings: VDR-UAS-bla HEK293T, beta-lactamase FRET ratio, 16 h; activity change, negative = inhibition: at 61 µM (top of the series) unless noted
# Method in brief: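 Antagonist mode: compound added to VDR-bla cells alongside agonist 1alpha,25-dihydroxyvitamin D3 (3 nM final), incubation 16 h at 37C. Read-out is LiveBLAzer FRET fluorescence, 2 h at room temperature.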
# [12] = qHTS assay to identify small molecule antagonists of the sonic hedgehog signaling (Shh) pathway (AID 1259369; calls by dose curve; also: % is scaled to controls: 0 for no effect and ±100 for the full control effect; nearly all actives have a fitted effect of over 45% in size)
# Method in brief: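 NIH/3T3-derived 3T3Gli1-Luc cells with stably integrated Gli1-Luc reporter were preincubated 4hr at 37 C, then given compounds in DMSO plus Shh conditioned medium and incubated 24hr. Firefly luciferase luminescence read after 30min reagent at room temperature.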
# [13] = qHTS assay for small molecule agonists of the p53 signaling pathway (AID 651631; calls by dose curve; also: % is scaled to controls: 0 for no effect and ±100 for the full control effect; nearly all actives have a fitted effect of over 15% in size); settings: HCT-116 p53RE-bla reporter, beta-lactamase FRET ratio, 16 h; activation: at 73.3 µM (top of the series) unless noted
# Method in brief: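 Readout was fluorescence from the LiveBLAzer FRET substrate, applied for 2 h at room temperature after 16 h compound exposure at 37 °C. Cells were the p53RE-bla HCT-116 line, with beta-lactamase driven by p53 response elements.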
# Tags tell the direction and shape of the fitted curve or compound fluorescence and quenching.
# Sequence of UniProt P06401 (P06401 whole entry, looked up): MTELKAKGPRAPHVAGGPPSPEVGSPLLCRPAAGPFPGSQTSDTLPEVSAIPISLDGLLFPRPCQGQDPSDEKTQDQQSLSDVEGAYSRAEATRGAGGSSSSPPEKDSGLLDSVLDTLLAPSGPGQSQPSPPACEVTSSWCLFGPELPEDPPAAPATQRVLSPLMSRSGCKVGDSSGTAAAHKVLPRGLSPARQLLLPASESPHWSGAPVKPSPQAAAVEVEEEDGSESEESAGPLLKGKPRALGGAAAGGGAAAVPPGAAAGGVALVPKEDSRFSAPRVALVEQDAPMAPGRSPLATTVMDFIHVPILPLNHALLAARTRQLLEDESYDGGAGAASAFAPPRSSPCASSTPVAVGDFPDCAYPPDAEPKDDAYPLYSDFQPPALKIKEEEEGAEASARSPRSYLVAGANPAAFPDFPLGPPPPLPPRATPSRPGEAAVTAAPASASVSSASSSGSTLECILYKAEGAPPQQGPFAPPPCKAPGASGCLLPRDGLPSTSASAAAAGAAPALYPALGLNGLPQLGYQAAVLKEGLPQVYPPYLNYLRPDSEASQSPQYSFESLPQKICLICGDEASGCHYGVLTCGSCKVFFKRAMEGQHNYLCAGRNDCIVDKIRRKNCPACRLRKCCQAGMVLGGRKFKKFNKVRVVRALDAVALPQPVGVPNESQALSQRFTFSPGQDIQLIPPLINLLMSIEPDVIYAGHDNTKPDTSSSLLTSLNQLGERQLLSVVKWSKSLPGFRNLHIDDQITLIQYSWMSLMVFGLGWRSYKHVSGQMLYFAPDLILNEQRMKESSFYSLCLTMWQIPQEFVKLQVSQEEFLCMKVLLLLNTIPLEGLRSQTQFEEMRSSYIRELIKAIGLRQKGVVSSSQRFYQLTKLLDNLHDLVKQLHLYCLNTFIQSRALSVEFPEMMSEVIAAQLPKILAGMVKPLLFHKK
# Sequence of UniProt P33261 (P33261 whole entry, looked up): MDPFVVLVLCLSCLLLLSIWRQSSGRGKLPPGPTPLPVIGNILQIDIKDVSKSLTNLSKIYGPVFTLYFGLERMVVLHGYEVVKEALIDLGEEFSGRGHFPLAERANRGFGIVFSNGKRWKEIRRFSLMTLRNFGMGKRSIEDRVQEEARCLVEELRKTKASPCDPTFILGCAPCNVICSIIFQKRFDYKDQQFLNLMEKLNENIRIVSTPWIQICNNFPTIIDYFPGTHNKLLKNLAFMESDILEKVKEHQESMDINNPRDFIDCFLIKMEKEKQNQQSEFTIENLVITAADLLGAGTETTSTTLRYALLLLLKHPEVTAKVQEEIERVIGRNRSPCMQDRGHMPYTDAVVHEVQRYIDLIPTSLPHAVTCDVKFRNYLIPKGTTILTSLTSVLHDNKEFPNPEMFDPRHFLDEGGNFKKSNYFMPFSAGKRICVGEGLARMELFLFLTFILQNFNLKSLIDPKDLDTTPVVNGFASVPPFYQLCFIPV
# Sequence of UniProt P11473 (P11473 whole entry, looked up): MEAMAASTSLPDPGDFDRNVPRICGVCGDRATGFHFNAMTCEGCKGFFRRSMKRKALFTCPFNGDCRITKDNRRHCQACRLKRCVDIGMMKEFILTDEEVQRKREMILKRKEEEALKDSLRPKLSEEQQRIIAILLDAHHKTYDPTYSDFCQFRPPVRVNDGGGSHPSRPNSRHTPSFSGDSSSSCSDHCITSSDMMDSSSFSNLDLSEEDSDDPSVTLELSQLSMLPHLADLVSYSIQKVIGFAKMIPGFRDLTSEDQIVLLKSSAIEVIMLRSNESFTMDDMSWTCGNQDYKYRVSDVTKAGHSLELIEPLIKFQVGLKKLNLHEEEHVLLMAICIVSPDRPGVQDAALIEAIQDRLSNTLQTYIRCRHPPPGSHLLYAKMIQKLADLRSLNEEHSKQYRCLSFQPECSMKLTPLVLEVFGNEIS
compound,measurement,setting,value
O=P(O)(O)C(Cl)(Cl)P(=O)(O)O,Potency,[1],inconclusive: 29.8 µM
same,Potency,[2],"inconclusive: 10.7 µM [rising, single point]"
C[C@]12N[C@H](Cc3ccccc31)c1ccccc12,Potency,[1],"inconclusive: 29.8 µM [cytotoxic, partial curve] and inconclusive: 29.8 µM [cytotoxic, single point]"
CCCCCN(C)CCC(O)(P(=O)(O)O)P(=O)(O)O,Potency,[3],inactive
same,Potency,[2],inactive
CC(C)NC(C)Cc1ccc(I)cc1 (stereo unspecified),Potency,[3],active: 13.3 µM
CCC1(C2=NCCN2)Cc2ccccc2O1 (stereo unspecified),Potency,[4],inactive
CCOC(=O)c1ccccc1S(=O)(=O)NC(=O)Nc1nc(Cl)cc(OC)n1,Potency,[5],inactive
same,Potency,[6],"inconclusive: 5.45 µM [cytotoxic, full curve]"
same,Potency,[7],"inconclusive: 71 µM [inhibitor, partial curve, poor fit]"
NC1(c2ccccc2)CCCCC1,Potency,[8],"inconclusive: 34.1 µM [activator, partial curve]"
same,Potency,[9],"inconclusive: 68 µM [cytotoxic, single point]"
same,Potency,[3],"inconclusive: 68 µM [cytotoxic, single point]"
same,Potency,[10],inactive
same,"activity change, negative = inhibition",[11],inconclusive: -11.7%
same,Potency,[12],inactive
same,"activity change, negative = inhibition",[5],inconclusive: -37%
same,Potency,[7],"inconclusive: 88.6 µM [inhibitor, single point]"
COc1ccccc1N1CCNCC1,Potency,[13],inactive
same,Potency,[5],inactive
same,Potency,[6],inactive
